Out of some 1,200 compounds screened, about 20 (2%) were called active. The shares of active, inactive and inconclusive entries below differ from those in the screen. Calls come from the whole dose curve; as a rule, active = well fitted inhibition curve with a large enough effect; inconclusive = small, poorly fitted or top-dose-only effect; inactive = no such curve, though single readings can be large or run the other way. No potency is given beside an inconclusive call; the fits are too rough.
The compounds below were run against Transcriptional regulator ERG (Homo sapiens) (UniProt P11308) (assay: qHTS for Small Molecule Inhibitors of the ERG Ets/DNA interaction: HTRF assay against cherry picks). Conditions: His-ERG Ets domain with biotin-DNA; series mostly up to 154 µM.
Chain of UniProt P11308 (P11308 whole entry, looked up, the tested form may be a part): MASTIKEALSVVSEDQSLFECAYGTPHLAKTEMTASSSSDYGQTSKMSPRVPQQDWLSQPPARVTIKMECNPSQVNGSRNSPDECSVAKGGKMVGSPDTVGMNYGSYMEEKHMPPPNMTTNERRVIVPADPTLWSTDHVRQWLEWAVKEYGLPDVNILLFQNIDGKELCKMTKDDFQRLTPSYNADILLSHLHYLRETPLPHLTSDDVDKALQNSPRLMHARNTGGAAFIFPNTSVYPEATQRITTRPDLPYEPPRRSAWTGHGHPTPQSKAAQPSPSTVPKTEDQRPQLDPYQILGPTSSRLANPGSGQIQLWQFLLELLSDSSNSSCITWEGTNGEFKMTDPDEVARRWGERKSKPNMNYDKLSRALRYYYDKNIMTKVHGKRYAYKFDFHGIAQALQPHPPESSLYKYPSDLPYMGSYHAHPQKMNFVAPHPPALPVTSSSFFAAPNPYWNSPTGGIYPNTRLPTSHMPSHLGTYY
In short: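 HTRF of His-tagged ERG Ets domain (200 nM solution) with biotin-DNA (200 nM solution) in 300mM KCl, 50mM Tris-HCl pH 7.5, 1mM EDTA, 1mM DTT; 10 min RT. Anti-His cryptate donor plus streptavidin acceptor added, 10 min, FRET read at 615/665 nm.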
Potency is the fitted concentration of half-maximal effect; tags give direction and shape of the fitted curve.

Row | Compound | Potency
1 | CC(C)N=c1cc2n(-c3ccc(Cl)cc3)c3ccccc3nc-2cc1Nc1ccc(Cl)cc1 | inconclusive [inhibitor, partial curve, poor fit]
2 | CC(C)CN=CC1=C(O)c2ccccc2C1=O | inconclusive [inhibitor, partial curve, poor fit]
3 | COc1cc(/C=C2/SC(=O)NC2=O)ccc1OC(=O)c1ccco1 | inconclusive [inhibitor, partial curve, poor fit]
4 | CCn1nc(C)c(CNC(=O)c2cc(COc3ccccc3SC)on2)c1C | inactive
5 | COC(OC)c1nc(SCC(=O)Nc2cccc(Cl)c2)ncc1C(=O)O | inactive
6 | CN(C)CCOc1cccc(Br)c1 | inconclusive [inhibitor, full curve, poor fit]
7 | CC(C)CCNC(=O)c1ccc2c(SCC(=O)O)c3c(nc2c1)CCCC3 | inactive
8 | O=C(Nc1ccc(NS(=O)(=O)c2ccc([N+](=O)[O-])cc2)cc1)c1ccco1 | inconclusive [inhibitor, partial curve, poor fit]
9 | Cc1c(-c2ccccc2)oc2c(C(=O)N3CCN(c4ccc([N+](=O)[O-])cc4)CC3)cccc2c1=O | inconclusive [inhibitor, partial curve, poor fit]
10 | COc1cc(/C=C2/S/C(=N/S(=O)(=O)c3ccccc3)NC2=O)c([N+](=O)[O-])cc1OC | inconclusive [inhibitor, partial curve, poor fit]
11 | CC1CC(C)CN(CCCSc2ccccc2)C1 (configuration not stated) | inconclusive [inhibitor, partial curve, poor fit]
12 | O=C(N/N=C/c1c[nH]c2ccccc12)c1ccc(Br)cc1 | inconclusive [inhibitor, partial curve, poor fit]
13 | Cc1nccc2oc(=O)c(NC(=O)c3ccc(Cl)cc3)cc12 | inconclusive [inhibitor, partial curve, poor fit]
14 | Cc1ccc(C)c(NC(=O)Cn2cnc3c(oc4ccccc43)c2=O)c1 | inconclusive [inhibitor, single point]
15 | COc1ccc(CCNC(=O)Cn2cc(C(F)(F)F)cc(Cl)c2=O)cc1 | inactive
16 | O=C(COC(=O)c1ccc(Cl)cc1[N+](=O)[O-])NCc1ccco1 | inconclusive [inhibitor, partial curve, poor fit]
17 | CCC(CC)COC(=O)C(C#N)c1nc2ccccc2nc1N1CCN(CC)CC1 (configuration not stated) | inconclusive [inhibitor, full curve, poor fit]
18 | CCOc1ccc(N/C(SCc2cccc([N+](=O)[O-])c2)=C(/C#N)C(N)=O)cc1 | inconclusive [inhibitor, partial curve, poor fit]
19 | CCN(CC)c1ccc2cc(-c3nc(-c4ccc(OC)cc4)cs3)c(=O)oc2c1 | inconclusive [inhibitor, single point]

Row | Compound | Potency
20 | COc1ccccc1CN1CC(C(=O)NCc2ncccc2C)CCC1=O (configuration not stated) | inconclusive [inhibitor, full curve, poor fit]
21 | CCCC(C(=O)NC1CCCC1)N(C(=O)c1snc(C(N)=O)c1N)c1ccc(F)cc1 (configuration not stated) | inconclusive [inhibitor, partial curve, poor fit]
22 | COc1ncnc2c1NC1=C(S2)C(=NCCC(=O)O)CC(C)(C)C1 | inconclusive [inhibitor, partial curve, poor fit]
23 | O=[N+]([O-])c1cc(Cl)cc(/C=N/NC(=S)Nc2cc(S(=O)(=O)N3CCOCC3)ccc2Cl)c1O | inconclusive [inhibitor, partial curve, poor fit]
24 | Cc1cc(C)nc(N/N=C/c2ccco2)n1 | inconclusive [inhibitor, single point]
25 | Cc1ccc(C(C)NC(=O)c2cccnc2)cc1 (configuration not stated) | inconclusive [inhibitor, single point]
26 | COc1ccc(NC(=O)COC(=O)C2CCC2)cc1Cl | inconclusive [inhibitor, partial curve, poor fit]
27 | COc1ccc(C(=O)NC(=S)NNC(=O)c2ccc(NC(=O)C(C)C)cc2)cc1 | inconclusive [inhibitor, partial curve, poor fit]
28 | CCc1nc2ccccc2c(C(=O)NCc2ccccc2)c1C | inconclusive [inhibitor, single point]
29 | O=S(=O)(NC1CCCCC1N1CCC(O)CC1)c1ccccc1 (configuration not stated) | inconclusive [inhibitor, full curve, poor fit]
30 | COc1cc(/C=N/NC(=O)c2ccncc2)ccc1OC(=O)c1ccc([N+](=O)[O-])cc1 | inconclusive [inhibitor, partial curve, poor fit]
31 | O=[N+]([O-])c1ccc(S(=O)(=O)N/N=C/c2ccsc2)cc1 | inconclusive [inhibitor, full curve, poor fit]
32 | Cc1ccc(/C=C/C(=O)Nc2ccc(S(=O)(=O)Nc3onc(C)c3C)cc2)cc1 | inconclusive [inhibitor, partial curve, poor fit]
33 | COc1ccc(NC(=O)c2sc3nc(C)cc(C)c3c2N)cc1 | inconclusive [inhibitor, partial curve, poor fit]
34 | CC(C)n1cnc2c(NCc3ccccc3)cc(N[C@H](C)CO)cc21 | inconclusive [inhibitor, partial curve, poor fit]
35 | CC(C)(C)OC(=O)N1CCC(CC2CC(c3cccc(Br)c3)=NO2)(C(=O)NCC2CCCCC2)CC1 (configuration not stated) | inconclusive [inhibitor, full curve, poor fit]
36 | CSCCC(NC(=O)/C(=C/c1ccc2c(c1)OCO2)NC(=O)c1cccc([N+](=O)[O-])c1)C(=O)O (configuration not stated) | inconclusive [inhibitor, partial curve]
37 | COc1ccc(NC2CCCN(C(=O)C3(C)CCCCC3)C2)cc1OC (configuration not stated) | inactive
